# Experimental data reported in the supplement of paper PMC8813932.
# Counter-ions that a name gives are not always drawn. ± gives the standard deviation of the averaged measurements. The list shows a part of the results. Repeats are few or missing, and single values can be far off.
# Tests used:
# Test in all cases: log2 surviving fraction relative to plate median (drug vs vehicle, or drug+dl922-947 vs dl922-947 alone); ovarian cancer lines: OVCAR4 is platinum-sensitive while Ov4Cis resists cisplatin and Ov4Carbo carboplatin; higher = more cell survival
# Settings in all cases: compound concentration: 10 uM, 192 h
# OVCAR4 = system: OVCAR4
# Ov4Carbo = system: Ov4Carbo
# Ov4Cis = system: Ov4Cis
# [1] = dl922-947 oncolytic adenovirus co-treatment: MOI 10
# [2] = dl922-947 oncolytic adenovirus co-treatment: none
SMILES,log2 surviving fraction (OVCAR4; [1]),log2 surviving fraction (OVCAR4; [2]),log2 surviving fraction (Ov4Carbo; [1]),log2 surviving fraction (Ov4Carbo; [2]),log2 surviving fraction (Ov4Cis; [1]),log2 surviving fraction (Ov4Cis; [2])
CC(C)(C(=O)O)c1ccc(C(O)CCCN2CCC(C(O)(c3ccccc3)c3ccccc3)CC2)cc1 (stereo not drawn) [Fexofenadine HCl],-0.213 ± 0.84,-0.215 ± 0.8,0.246,-0.352,-0.43,0.0423
Cc1c(OCC(F)(F)F)ccnc1C[S@@+]([O-])c1nc2ccccc2[nH]1 [Dexlansoprazole],-0.363 ± 0.25,-2.08 ± 0.5,0.147,-2.49,-0.396,-1.55
Nc1c(CC(=O)O)cccc1C(=O)c1ccccc1 [Amfenac Sodium (monohydrate)],0.0944 ± 0.4,-0.386 ± 1.3,-0.591,-7.54,-1.22,-0.121
COc1c(C)c2c(c(O)c1C/C=C(\C)CCC(=O)OCCN1CCOCC1)C(=O)OC2 [Mycophenolate mofetil (CellCept)],-3.18 ± 1,-5.19 ± 1.4,-3.41,-8.56,-3.17,-5.46
CCN(CC)CC#CCOC(=O)C(O)(c1ccccc1)C1CCCCC1 (stereo not drawn) [Oxybutynin chloride],-0.291 ± 0.089,-0.325 ± 0.28,-0.379,0.0698,0.207,-1.6
NC(=O)Cc1cccc(C(=O)c2ccccc2)c1N [Nepafenac],0.873 ± 0.52,3.54 ± 2.3,1.56,2.43,1.03,2.05
C=C[C@]1(C)C[C@@H](OC(=O)CS[C@@H]2C[C@H]3CC[C@@H](C2)N3C)[C@]2(C)[C@H](C)CC[C@]3(CCC(=O)[C@H]32)[C@@H](C)[C@@H]1O [Retapamulin],-0.4 ± 0.35,-0.777 ± 0.86,-1.58,-0.269,-1.69,0.496
CC(=O)N1CCN(c2ccc(OCC3COC(Cn4ccnc4)(c4ccc(Cl)cc4Cl)O3)cc2)CC1 (stereo not drawn) [Ketoconazole],-0.341 ± 0.19,-1.66 ± 0.7,-0.366,-1.52,-0.452,-0.468
CS(=O)(=O)CCNCc1ccc(-c2ccc3ncnc(Nc4ccc(OCc5cccc(F)c5)c(Cl)c4)c3c2)o1 [Lapatinib Ditosylate (Tykerb)],0.382 ± 0.15,-1.71 ± 9.3,-4.51,-1.18,-1.84,-0.934
COc1cc(C(=O)NC2CCCNC2)cc(OC)c1OC (stereo not drawn) [Troxipide],0.503 ± 0.96,1.13 ± 0.82,0.438,0.265,0.427,-0.0538
c1ccc(CN(CC2=NCCN2)c2ccccc2)cc1 [Antazoline HCl],-0.146 ± 0.29,-0.453 ± 0.16,-0.179,-0.361,-0.204,-0.894
C[C@@]12C[C@@]3(O)O[C@@H](O1)[C@]1(COC(=O)c4ccccc4)[C@H]3C[C@@]12O[C@@H]1O[C@H](CO)[C@@H](O)[C@H](O)[C@H]1O [Paeoniflorin],0.261 ± 0.81,1.11 ± 0.76,-0.66,0.601,1.41,1
CCOC(=O)C1=C(COCCN)NC(C)=C(C(=O)OC)C1c1ccccc1Cl (stereo not drawn) [Amlodipine besylate (Norvasc)],-2.96 ± 0.45,-3.68 ± 2.2,-2.59,-4.31,-7.48,-12.3
CN1CC(=O)N2[C@H](c3ccc4c(c3)OCO4)c3[nH]c4ccccc4c3C[C@@H]2C1=O [Tadalafil (Cialis)],-0.0619 ± 0.96,0.0424 ± 0.18,0.646,-1.33,0.438,0.333
CC(C)CN(C[C@@H](O)[C@H](Cc1ccccc1)NC(=O)O[C@H]1CO[C@H]2OCC[C@H]21)S(=O)(=O)c1ccc(N)cc1 [Darunavir Ethanolate (Prezista)],-0.223 ± 0.39,-0.244 ± 0.6,-0.288,0.453,-0.506,-0.157
CCCc1ncc(C[n+]2ccccc2C)c(N)n1 [Amprolium HCl],0.435 ± 0.1,0.443 ± 0.59,0.57,-0.323,0.232,1.28
CCCCC(=O)O[C@]1(C(=O)CO)[C@@H](C)C[C@H]2[C@@H]3CCC4=CC(=O)C=C[C@]4(C)[C@@]3(F)[C@@H](O)C[C@@]21C [Betamethasone valerate (Betnovate)],1.03 ± 0.48,0.695 ± 0.96,0.263,-0.177,1.78,-0.791
Nc1[nH]cnc2ncnc1-2 [Adenine sulfate],0.022 ± 0.71,1.07 ± 1.1,0.777,0.299,0.0647,1.33
CCNC(=O)CCC/C=C\C[C@@H]1[C@@H](/C=C/[C@@H](O)CCc2ccccc2)[C@H](O)C[C@@H]1O [Bimatoprost],0.795 ± 1.7,0.53 ± 0.59,-0.771,0.116,0.58,-0.101
COC(c1ccccc1)(c1ccccc1)[C@H](Oc1nc(C)cc(C)n1)C(=O)O [Ambrisentan],0.475 ± 0.45,0.371 ± 0.23,0.00419,-0.256,-0.285,-0.177
CC(=O)OCC[N+](C)(C)C [Acetylcholine chloride],0.532 ± 0.38,0.278 ± 0.021,1.46,0.427,0.528,0.27
CC(=O)/N=c1/sc(S(N)(=O)=O)nn1C [Methazolamide],-0.233 ± 0.32,-0.0624 ± 0.54,-2.65,0.361,-0.625,-0.558
NC(=O)OCC(COC(N)=O)c1ccccc1 [Felbamate],-0.0351 ± 1.1,0.112 ± 0.74,0.624,-0.602,0.457,0.578
Cc1cccc(C)c1NC1=NCCCS1 [Xylazine HCl],-0.0521 ± 0.31,0.595 ± 0.33,0.0891,-0.0957,-0.353,-0.377
CC(C)[C@H]1CC[C@H](C(=O)N[C@H](Cc2ccccc2)C(=O)O)CC1 [Nateglinide (Starlix)],0.544 ± 0.12,0.37 ± 0.16,1.75,0.85,-0.0416,0.0791
S=c1[nH]cnc2nc[nH]c12 [Mercaptopurine],-0.777 ± 0.25,-3.51 ± 2,-1.66,-6.38,-0.168,-1.94
O=C(O)CSCC(=O)NC1CCSC1=O (stereo not drawn) [Erdosteine],1.75 ± 1.9,-0.236 ± 0.93,1.06,0.395,0.252,-0.0275
OCCOCCN1CCN(C2=Nc3ccccc3Sc3ccccc32)CC1 [Quetiapine fumarate (Seroquel)],-1.09 ± 0.42,-1.73 ± 2,-3.39,-1.67,-1.46,0.268
